Among the data in paper PMC12136788 are binding signal values, retold here.

This is one part of the list.

The labels stand for the following.
T1: UNK ZnF1-6 (called full-length) (human, UniProt Q9C0B0 30-357)
T1 sequence: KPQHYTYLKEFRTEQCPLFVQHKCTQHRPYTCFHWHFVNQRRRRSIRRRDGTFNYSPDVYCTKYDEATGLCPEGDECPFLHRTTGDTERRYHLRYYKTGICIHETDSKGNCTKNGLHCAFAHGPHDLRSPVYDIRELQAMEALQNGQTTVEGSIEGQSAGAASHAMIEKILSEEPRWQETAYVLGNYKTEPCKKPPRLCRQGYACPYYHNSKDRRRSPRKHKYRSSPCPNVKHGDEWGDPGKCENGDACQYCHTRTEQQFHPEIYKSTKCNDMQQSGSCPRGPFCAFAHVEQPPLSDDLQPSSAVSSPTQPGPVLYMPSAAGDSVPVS

B1: chr5:133076644:133076819:+|CDS|ENSG00000170606|unk|total|mutant (ssRNA)
RNA: GGGAGUUCUACAGUCCGACGAUCAAAAUUUGAUGAAGUGUCCGUAAAUCACUUCUGUGAAGAAUUUGGGAAGAAAUACAAGCCCGACAUUAAGUCCAAAAUCCGUGCAUUAUUACGACUCUCUCAGGAGUGUGAGAAACUCAACAACAGAGGAUUGAGCAUCA
B2: chr2:151248206:151248307:-|3pUTR|ENSG00000184898|msi1|total|mutant (ssRNA)
RNA: GGGAGUUCUACAGUCCGACGAUCUUUUUUUAAAGCAAAGAUUAAAUUCCCAUGUAAAACCUUCCUCCCUAUACAAAAAAGAACCGCAGCAUUUUUAUCUUCAAUGACAAAGAAUUGAGUCCAAGAAAAUACUGUAUAAACCUUCAACAGAGGAUUGAGCAUCA
B3: chr2:224511460:224511569:-|CDS|ENSG00000036257|unk|total|mutant (ssRNA)
RNA: GGGAGUUCUACAGUCCGACGAUCGAAAGCCAGAAAUUUUCCGCAGAAAACCGUGCUUCAGUAUAUAUAAAGAAAGCCGAAGCCCGAAUUAAUGAAGAAACCGAACGAGUGAUGCACUGCCUUGACAAAUCAACGGAAGAACCACAACAGAGGAUUGAGCAUCA
B4: chr1:229660051:229660152:+|3pUTR|ENSG00000135763|msi1|FALSE|bound_elsewhere (ssRNA)
RNA: GGGAGUUCUACAGUCCGACGAUCCUCAUUCAUAGUCUCAGUUACCCAGAUAACCUCGGUUGUCACCUUGGAGUAUCUUGUUGUAGUCCCUUUACUAUGUGUAUGUAUAUAGAUGUGCAUAUAAAUAUAUAUAGUAGCUAAAUUCAACAGAGGAUUGAGCAUCA
B5: chr1:93866283:93869944:-|three_prime_utr|ENSG00000067334|control|control|control (ssRNA)
RNA: GGGAGUUCUACAGUCCGACGAUCUUUAUUUACUUAUUAAAGACGUUUGGAAAACUAACACCAUCAUCUAAAUUAAUUUACCAUAGACUGGCCCUGUUCAUACAGGAAUUUGUAUUUGGAAAAAGUUGAUUUGAGAAUCGAUUACAACAGAGGAUUGAGCAUCA
B6: chr10:5457295:5457390:+|3pUTR|ENSG00000173848|msi1_unk|FALSE|overlapping (ssRNA)
RNA: GGGAGUUCUACAGUCCGACGAUCUCUGGAUUCAUCAUGGCUUUCUAAUACCAAUUGUAAUAUUUACAAUAUUCACCAAAACUUAGAAUUUUGCAAAUGCUGGAAUUCUGCCAGUGUUUCUUUGCUAAGCCUUGCAUGCAAAAUCAACAGAGGAUUGAGCAUCA
B7: chr17:64498535:64498649:-|3pUTR|ENSG00000108654|unk|FALSE|unique (ssRNA)
RNA: GGGAGUUCUACAGUCCGACGAUCUUAAACUGAGGCUUUAAUUGAUGUUAAUGCCUUAUGUCAAAUGUAAAGUUAGAAUUUGCUAGGGCUGGGAUAGGGAGUGAUAUUUCUAGGACUUAGACAUUGAAAACUAAUUCAGCCUGUCAACAGAGGAUUGAGCAUCA
B8: chr15:57961136:57961294:-|CDS|ENSG00000128918|control|control|control (ssRNA)
RNA: GGGAGUUCUACAGUCCGACGAUCGAGAUUUAAGACGAUGGAUGAAGUUAUCGAAAGAGCCAAUAACUCAGACUUUGGACUCGUAGCAGCUGUCUUUACUAAUGACAUCAACAAGGCCCUCACAGUGUCUUCUGCAAUGCAAGCCAACAGAGGAUUGAGCAUCA
B9: chr5:138349049:138349150:+|3pUTR|ENSG00000120709|msi1|FALSE|unique (ssRNA)
RNA: GGGAGUUCUACAGUCCGACGAUCGAGAAGGUCUACAGUUAUCAUUAUUUUAAUUCCAUUACUUUCAGUCUGGAAAACUAAGCUAGUCAGAACUGUCAUCUUGCUUCCCAAUCUAAGAACCUGUGGCCCUGGAACACUUUUCAACAACAGAGGAUUGAGCAUCA
B10: ENSG00000152661:stop:overlap|stop_codon|ENSG00000152661|stop_codon|NA|stop_codon (ssRNA)
RNA: GGGAGUUCUACAGUCCGACGAUCCUUCAAGCAGAGCCAGCAGUCGUGCCAGCAGCAGACCUCGGCCUGAUGACCUGGAGAUCUAGAUACAGGCUUGAAAGCAUCAAGAUUCCACUCAAUUGUGGAGAAGAAAAAAGGUGCUGUCAACAGAGGAUUGAGCAUCA
B11: chr6:49492913:49492980:+|3pUTR|ENSG00000031691|msi1_unk|total|mutant (ssRNA)
RNA: GGGAGUUCUACAGUCCGACGAUCUGUUGAAUAUUUUCUACUGUCAUCAAAACAUAUUCCCAAAAAGUAUUAAAAAGGAACCUCCGCACAUUUAUUUUAUUAAAACAAGAAAACCCAAAAUAUAUAAACCUUUUCUUAUUAUGACAACAGAGGAUUGAGCAUCA
B12: chr9:77717828:77717929:-|3pUTR|ENSG00000156052|unk|total|mutant (ssRNA)
RNA: GGGAGUUCUACAGUCCGACGAUCGUGCCUCAUAUCUGAAACAAAGGGAAAUAACACACCCAUUCAAAAGUAAAUAAAUCUCCCCGAAGUUUUUGUUUUUAACAUUUCCAUAUAAAGAGCUCUGUUGAAUGUCAUGAACCGACUCAACAGAGGAUUGAGCAUCA
B13: chr15:76949589:76949706:+|3pUTR|ENSG00000117906|msi1_unk|FALSE|overlapping (ssRNA)
RNA: GGGAGUUCUACAGUCCGACGAUCAUAAAUUUUUGUUUUUGUUCUAAGUAGAUUUAAUUUGGGAACUGACAGGACAAUGUUUUUAGGUUUAGCAUUUUGUUUAAAAACCUUUAAAGAAACCUUUAGAAGGACUUAGACCUCACACAACAGAGGAUUGAGCAUCA
B14: chr1:77949188:77949289:-|CDS|ENSG00000162613|unk|FALSE|unique (ssRNA)
RNA: GGGAGUUCUACAGUCCGACGAUCUUCAAAGGUCAGGCAGUUCCUGCUCCGACUGGGGCUCCUCCAGGUGGUCAGCCAGAUUAUAGUGCAGCCUGGGCUGAGUAUUAUAGACAACAAGCAGCCUAUUAUGCCCAGACAAGUCCCCAACAGAGGAUUGAGCAUCA
B15: ENSG00000101596:stop:overlap|stop_codon|ENSG00000101596|stop_codon|NA|stop_codon (ssRNA)
RNA: GGGAGUUCUACAGUCCGACGAUCUUAGUUGUAAUAAAAUAAAAGAUAAUGACAAAGAAGAUGGCUGCUUCUAUUUCAGGUUAUAGUUGAAGUCCUGCCUAAUCAACCUGUGAAGUUAGUACCUAAAAUUAAACCACCUACACCCAACAGAGGAUUGAGCAUCA
B16: chr4:108667468:108667493:+|3pUTR|ENSG00000198856|msi1_unk|total|mutant (ssRNA)
RNA: GGGAGUUCUACAGUCCGACGAUCGAAUUUUUUUUCCUGCUGGCCUAUUGCUAUACCAAUGAUGUUGAGUGGCAUUUUCUUUUCCGUUUUUCAUUAAAAUAUAUUCCAUAUCUACAACUAUAAUAUCAAAUAAAGUGAUUAUUUCAACAGAGGAUUGAGCAUCA
B17: chr19:51415897:51416167:-|CDS|ENSG00000142512|control|control|control (ssRNA)
RNA: GGGAGUUCUACAGUCCGACGAUCGCCACACUGAGCUGGGUCCUGCAGAACAGAGUCCUCUCCUCGUCCCAUCCCUGGGGCCCUAGACCCCUGGGGCUGGAGCUGCCCGGGGUGAAGGCUGGGGAUUCAGGGCGCUACACCUGCCAACAGAGGAUUGAGCAUCA
B18: chrX:119243754:119243940:+|3pUTR|ENSG00000101856|msi1|total|mutant (ssRNA)
RNA: GGGAGUUCUACAGUCCGACGAUCAGCUGCAAAAAAGCAUAUUUUCUGUGUUUCUGGACUGCACUGUUGUCCUUGCCCUCACACCGACACUCAGACACCCUCACAAACACAGCCGUCUACCGUCCGGAUUAAAACCGGAUCUGACAACAGAGGAUUGAGCAUCA
B19: chr8:28970260:28970371:+|CDS|ENSG00000147421|unk|total|mutant (ssRNA)
RNA: GGGAGUUCUACAGUCCGACGAUCUCUUCCUCUACAGCUACAGCUUCCACACAGACGCAGCAUUCGGGAAUGUCCCCGUCACCCCGCAACAGUUAUGAUACUUCCCCACAGCCUUGCACUACCAAUCAAAAUGGGAGGGAGAAUCAACAGAGGAUUGAGCAUCA
B20: ENSG00000107863:be:win_3101|CDS|ENSG00000107863|bound_else_gene|NA|bound_elsewhere_windowed (ssRNA)
RNA: GGGAGUUCUACAGUCCGACGAUCCGAUCCAGGAGAGCAGCAACCUAAACGAAGAGGACACUGGAGUCACUAACAGGGAUCUAAUUAGUCGAAGAAUAAAAGAAUACAACAAUCUGAUGAGCAAAGCAGAACAGUUGCCAAAAACAACAGAGGAUUGAGCAUCA
B21: ENSG00000070961:be:win_3651|CDS_3pUTR|ENSG00000070961|bound_else_gene|NA|bound_elsewhere_windowed (ssRNA)
RNA: GGGAGUUCUACAGUCCGACGAUCAACAUCACUCUGAUUGUAAGCUGAAUGUUAACACACUAGCUGCAUUGUAAAGAAACAAAUUGAAACUGGGUCUUUUCACAUAUUGUGAUGGACAAGCUAGUAUUCUUGUCUUUGGACUUCCAACAGAGGAUUGAGCAUCA
B22: chr4:125449804:125449905:+|CDS|ENSG00000196159|msi1|FALSE|unique (ssRNA)
RNA: GGGAGUUCUACAGUCCGACGAUCAAACAGAUCUUAAAAUACCAAAAUGUCACUGGCUUCAGUAAUGUGAAUAUCAACAGGCAUAGUUUUAUAGUGACAUCUUCAGAUCGAGGUAAACCUUCCUUAAUUAGUGAGACAACAGUUCAACAGAGGAUUGAGCAUCA

The assay addresses T1, UNK ZnF1-6 (called full-length). Description: nsRBNS (natural sequence RNA bind-n-seq); RBNS binding buffer (assumed for nsRBNS): 25 mM Tris pH 7.5, 150 mM KCl, 3 mM MgCl2, 0.01% Triton X-100, 500 ug/ml BSA, 20 U/ml SUPERase-In, 4 C; UNK is unkempt and MSI1 is Musashi-1; names of the RNAs are library labels; protein concentration not given here; high values mean tight binding.
The molecule B1 registered a binding signal of 0.222 enrichment R.

For the molecule B2, the binding signal turned out to be 0.497 enrichment R.

Regarding B3, the binding signal worked out at 0.457 enrichment R.

Molecule B4 registered a binding signal of 1.07 enrichment R.

For the molecule B5, the binding signal is 0.423 enrichment R.

The molecule B6 gave a binding signal of 0.525 enrichment R.

B7: the binding signal stood at 0.878 enrichment R.

Turning to B8, the binding signal worked out at 0.556 enrichment R.

As to B9, the binding signal stood at 0.404 enrichment R.

B10 came in with a binding signal of 0.815 enrichment R.

For the molecule B11, the binding signal stood at 1.17 enrichment R.

Molecule B12 registered a binding signal of 0.438 enrichment R.

Take B13: the binding signal was determined as 1.55 enrichment R.

B14: the binding signal worked out at 0.745 enrichment R.

Molecule B15 had a binding signal of 1.46 enrichment R.

Consider B16, for which the binding signal came out at 1.32 enrichment R.

B17 had a binding signal of 0.641 enrichment R.

Molecule B18 gave a binding signal of 0.437 enrichment R.

B19 returned a binding signal of 0.625 enrichment R.

The molecule B20 showed a binding signal of 1.04 enrichment R.

In turn, B21 yielded a binding signal of 0.339 enrichment R.

On to B22, for which the binding signal was 1.11 enrichment R.
